The term IC50 denotes the concentration that inhibits the measured activity by half.

For one molecule, IC50 results are on record in US6962930B1, “Compounds, compositions and method suitable for amelioration of withdrawal syndromes and withdrawal-induced brain damage” (Lohocla Research Corporation, priority 1997, dated 2005).

The assay deals with kainate binding site on non-NMDA glutamate receptors. As to the kind of experiment: [3H]kainate binding, rat cortical membranes. The settings on record: 5–200 μM DCUKA tested. On the procedure: Non-specific binding was defined with 0.5 mM kainate.

The molecule `O=C(O)c1cc(NC(=O)N(c2ccccc2)c2ccccc2)c2c(Cl)cc(Cl)cc2n1` [DCUKA, (N,N-diphenyl)-4-ureido-5,7-dichloro-2-carboxy-quinoline] had an IC50 above 200 µM.
